From the supplement of paper PMC4604168 (melanoma cell lines)
This is one part of the list. Single values are uncertain, as repeats are few or missing.

What follows are molecules tested on WM3619 (assay: cell count relative to DMSO control; melanoma cells; higher = more viable cells). Settings: library dose: low library concentration; 72 h; first compound 0.4 µM.
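Further: cell number obtained by counting DAPI-stained nuclei in high-throughput microscope images with image analysis software, screen run in 1,536-well plates.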

Row | SMILES | cell count [%]
1 | Cn1sc(=O)n(Cc2ccccc2)c1=O + Cn1c(Nc2ccc(C(F)(F)F)cc2)nc2cc(Oc3ccnc(-c4ncc(C(F)(F)F)[nH]4)c3)ccc21 [CHIR265] (partner dose 0.08 µM) | 59.2
2 | CCCCCCCCCCCCCCCCCCOP(=O)([O-])OC1CC[N+](C)(C)CC1 [Perifosine] + Clc1ccc(Nc2nnc(Cc3ccncc3)c3ccccc23)cc1 [vatalanib] (partner dose 2 µM) | 87.9
3 | C[C@@H](N)c1ccc(C(=O)Nc2ccnc3[nH]ccc23)cc1 + Nc1cccc2c1CN(C1CCC(=O)NC1=O)C2=O [lenalidomide] (partner dose 1 µM) | 98.5
4 | CCCCCCCCCCCCCCCCCCOP(=O)([O-])OC1CC[N+](C)(C)CC1 [Perifosine] + NC1(c2ccc(-c3nc4ccn5c(=O)[nH]nc5c4cc3-c3ccccc3)cc2)CCC1 [MK2206] (partner dose 0.4 µM) | 91.1
5 | Cn1sc(=O)n(Cc2ccccc2)c1=O + NC(=O)c1ccc(N(C(N)=O)c2c(F)cccc2F)nc1-c1ccc(F)cc1F [VX702] (partner dose 0.4 µM) | 109
6 | Cn1sc(=O)n(Cc2ccccc2)c1=O + CC(=O)c1c(C)c2cnc(Nc3ccc(N4CCNCC4)cn3)nc2n(C2CCCC2)c1=O [palbociclib] (partner dose 0.04 µM) | 45
7 | Cn1sc(=O)n(Cc2ccccc2)c1=O + COc1ccc(-c2ccc3c(N4CCOCC4)nc(N4C[C@@H](C)O[C@@H](C)C4)nc3n2)cc1CO [KU0063794] (partner dose 0.02 µM) | 94.7
8 | Cn1sc(=O)n(Cc2ccccc2)c1=O + O=C1NC(=O)/C(=C/c2ccc(-c3ccc(F)cc3O)o2)S1 [AS252424] (partner dose 1 µM) | 93.9
9 | Cn1sc(=O)n(Cc2ccccc2)c1=O + COc1cc(Nc2ncc(F)c(Nc3ccc4c(n3)NC(=O)C(C)(C)O4)n2)cc(OC)c1OC [Tamatinib] (partner dose 0.4 µM) | 61.1
10 | C[C@@H](N)c1ccc(C(=O)Nc2ccnc3[nH]ccc23)cc1 + Nc1nc(F)nc2c1ncn2[C@@H]1O[C@H](CO)[C@@H](O)[C@@H]1O [fludarabine] (partner dose 0.2 µM) | 97.3
11 | Cn1sc(=O)n(Cc2ccccc2)c1=O + Nc1nc(F)nc2c1ncn2[C@@H]1O[C@H](CO)[C@@H](O)[C@@H]1O [fludarabine] (partner dose 0.2 µM) | 85.6
12 | Cn1sc(=O)n(Cc2ccccc2)c1=O + c1cc(-c2cnn3cc(-c4ccc(OCCN5CCCCC5)cc4)cnc23)ccn1 [Dorsomorphin] (partner dose 0.4 µM) | 115
13 | Cn1sc(=O)n(Cc2ccccc2)c1=O + C=CCn1c(=O)c2cnc(Nc3ccc(N4CCN(C)CC4)cc3)nc2n1-c1cccc(C(C)(C)O)n1 [MK1775] (partner dose 0.02 µM) | 69.8
14 | Cn1sc(=O)n(Cc2ccccc2)c1=O + OCCn1cc(-c2cnc3nnn(Cc4ccc5ncccc5c4)c3n2)cn1 [PF04217903] (partner dose 1 µM) | 117
15 | Cn1sc(=O)n(Cc2ccccc2)c1=O + Cn1c(=O)n(-c2ccc(C(C)(C)C#N)cc2)c2c3cc(-c4cnc5ccccc5c4)ccc3ncc21 [NVP-BEZ235] (partner dose 0.004 µM) | 76.6
16 | Cn1sc(=O)n(Cc2ccccc2)c1=O + C#Cc1cccc(Nc2ncnc3cc(OCCOC)c(OCCOC)cc23)c1 [erlotinib] (partner dose 0.8 µM) | 102
17 | Cn1sc(=O)n(Cc2ccccc2)c1=O + COC(=O)c1sccc1S(=O)(=O)Nc1ccc(Nc2ccccc2)cc1OC [GSK0660] (partner dose 1 µM) | 63.3
18 | C[C@@H](N)c1ccc(C(=O)Nc2ccnc3[nH]ccc23)cc1 + COc1ccc(Cl)c(Nc2nc3ccccc3nc2NS(=O)(=O)c2cccc(NC(=O)C(C)(C)N)c2)c1 [XL147] (partner dose 0.8 µM) | 78.9
19 | C[C@@H](N)c1ccc(C(=O)Nc2ccnc3[nH]ccc23)cc1 + CCc1ccc(CCOc2ccc(CC3SC(=O)NC3=O)cc2)nc1 [pioglitazone] (partner dose 2 µM) | 77.6
20 | CCCCCCCCCCCCCCCCCCOP(=O)([O-])OC1CC[N+](C)(C)CC1 [Perifosine] + COc1ccc(C2=N[C@@H](c3ccc(Cl)cc3)[C@@H](c3ccc(Cl)cc3)N2C(=O)N2CCNC(=O)C2)c(OC(C)C)c1 [Nutlin-3] (partner dose 0.1 µM) | 115

Row | SMILES | cell count [%]
21 | CCCCCCCCCCCCCCCCCCOP(=O)([O-])OC1CC[N+](C)(C)CC1 [Perifosine] + CNC(=O)c1cc(Oc2ccc(NC(=O)Nc3ccc(Cl)c(C(F)(F)F)c3)cc2)ccn1 [sorafenib] (partner dose 0.4 µM) | 93.8
22 | C[C@@H](N)c1ccc(C(=O)Nc2ccnc3[nH]ccc23)cc1 + COc1cc(N2CCC(N3CCN(C)CC3)CC2)ccc1Nc1ncc(Cl)c(Nc2ccccc2S(=O)(=O)C(C)C)n1 [NVP-TAE684] (partner dose 0.08 µM) | 72.4
23 | Cn1sc(=O)n(Cc2ccccc2)c1=O + Nc1cccc2c1CN(C1CCC(=O)NC1=O)C2=O [lenalidomide] (partner dose 1 µM) | 110
24 | CCCCCCCCCCCCCCCCCCOP(=O)([O-])OC1CC[N+](C)(C)CC1 [Perifosine] + O=C1NC(=O)/C(=C/c2ccc(-c3ccc(F)cc3O)o2)S1 [AS252424] (partner dose 1 µM) | 87.8
25 | Cn1sc(=O)n(Cc2ccccc2)c1=O + O=C(Nc1ccccc1)c1cc([N+](=O)[O-])ccc1Cl [GW9662] (partner dose 2 µM) | 87.8
26 | Cn1sc(=O)n(Cc2ccccc2)c1=O + Clc1ccc(Nc2nnc(Cc3ccncc3)c3ccccc23)cc1 [vatalanib] (partner dose 2 µM) | 87.6
27 | C[C@@H](N)c1ccc(C(=O)Nc2ccnc3[nH]ccc23)cc1 + C[C@@H](Oc1cc(-c2cnn(C3CCNCC3)c2)cnc1N)c1c(Cl)ccc(F)c1Cl [Crizotinib] (partner dose 0.2 µM) | 106
28 | C[C@@H](N)c1ccc(C(=O)Nc2ccnc3[nH]ccc23)cc1 + CC(C)CCN1c2nc(Nc3cc(F)c(O)c(F)c3)ncc2N(C)C(=O)C1C [BID1870] (partner dose 0.2 µM) | 122
29 | C[C@@H](N)c1ccc(C(=O)Nc2ccnc3[nH]ccc23)cc1 + C[C@]1(c2nc3c(C(N)=O)cccc3[nH]2)CCCN1 [Veliparib] (partner dose 1.4 µM) | 91.1
30 | Cn1sc(=O)n(Cc2ccccc2)c1=O + COc1ccc(C2=N[C@@H](c3ccc(Cl)cc3)[C@@H](c3ccc(Cl)cc3)N2C(=O)N2CCNC(=O)C2)c(OC(C)C)c1 [Nutlin-3] (partner dose 0.1 µM) | 96
31 | CCCCCCCCCCCCCCCCCCOP(=O)([O-])OC1CC[N+](C)(C)CC1 [Perifosine] + CCCCCCCCCCCC1=C(O)C(=O)C=C(O)C1=O [Embelin] (partner dose 1.2 µM) | 89.1
32 | CCCCCCCCCCCCCCCCCCOP(=O)([O-])OC1CC[N+](C)(C)CC1 [Perifosine] + COC(=O)c1sccc1S(=O)(=O)Nc1ccc(Nc2ccccc2)cc1OC [GSK0660] (partner dose 1 µM) | 105
33 | C[C@@H](N)c1ccc(C(=O)Nc2ccnc3[nH]ccc23)cc1 + Cc1cc(Nc2cc(N3CCN(C)CC3)nc(/C=C/c3ccccc3)n2)n[nH]1 [ENMD2076] (partner dose 0.04 µM) | 93.3
34 | CCCCCCCCCCCCCCCCCCOP(=O)([O-])OC1CC[N+](C)(C)CC1 [Perifosine] + COCC[n+]1c2c(n(Cc3cnccn3)c1C)C(=O)c1ccccc1C2=O [YM155] (partner dose 0.0004 µM) | 86
35 | C[C@@H](N)c1ccc(C(=O)Nc2ccnc3[nH]ccc23)cc1 + O=C(Nc1cccc(Cl)c1)Nc1ncc(CCNc2ncnc3ccsc23)s1 [SNS314] (partner dose 0.0008 µM) | 107
36 | CCCCCCCCCCCCCCCCCCOP(=O)([O-])OC1CC[N+](C)(C)CC1 [Perifosine] + C=CCn1c(=O)c2cnc(Nc3ccc(N4CCN(C)CC4)cc3)nc2n1-c1cccc(C(C)(C)O)n1 [MK1775] (partner dose 0.02 µM) | 96.5
37 | CCCCCCCCCCCCCCCCCCOP(=O)([O-])OC1CC[N+](C)(C)CC1 [Perifosine] + C=C(c1ccc(C(=O)O)cc1)c1cc2c(cc1C)C(C)(C)CCC2(C)C [Bexarotene] (partner dose 2 µM) | 86.6
38 | CCCCCCCCCCCCCCCCCCOP(=O)([O-])OC1CC[N+](C)(C)CC1 [Perifosine] + Nc1ncn([C@H]2C[C@H](O)[C@@H](CO)O2)c(=O)n1 [decitabine] (partner dose 0.1 µM) | 88.9
39 | C[C@@H](N)c1ccc(C(=O)Nc2ccnc3[nH]ccc23)cc1 + C[C@]1(O)C[C@@H](c2nc(-c3ccc4ccc(-c5ccccc5)nc4c3)c3c(N)nccn32)C1 [OSI906] (partner dose 0.4 µM) | 79.7
